Experimental data published in PubChem BioAssay AID1768 (National Center for Advancing Translational Sciences (NCATS), 2009).
Out of some 270,000 compounds screened, about 620 (0.23%) were called active. This list was built around the results that the source calls inconclusive (neither active nor inactive); the mix of calls is not that of the screen. The call rests on the fitted dose curve; in most records, active means well fitted inhibition curve with a large enough effect in the polarisation, with a control signal flat (not every such curve was filed as active); inconclusive means small, poorly fitted or top-dose-only effect, or effect the other way, or a change in a side signal; inactive means no such curve, though single readings can be large or run the other way; the % refers to the polarisation. Where the call is inconclusive, the potency comes from a doubtful curve fit. A note “side channel” means that the fit belongs to a control or component signal, not to the main read-out.

The compounds below were run against Menin (Homo sapiens) (UniProt O00255) (assay: qHTS Assay for Inhibitors Targeting the Menin-MLL Interaction in MLL Related Leukemias: Competition With Texas Red Labeled MLL-derived Mutant Peptide). Conditions: fluorescence polarization; series mostly up to 61.6 µM.
Potency means the concentration at half of the fitted maximal effect; tags describe the fitted curve by direction and shape or compound fluorescence and quenching.

Chain of UniProt O00255 (O00255 whole entry, looked up): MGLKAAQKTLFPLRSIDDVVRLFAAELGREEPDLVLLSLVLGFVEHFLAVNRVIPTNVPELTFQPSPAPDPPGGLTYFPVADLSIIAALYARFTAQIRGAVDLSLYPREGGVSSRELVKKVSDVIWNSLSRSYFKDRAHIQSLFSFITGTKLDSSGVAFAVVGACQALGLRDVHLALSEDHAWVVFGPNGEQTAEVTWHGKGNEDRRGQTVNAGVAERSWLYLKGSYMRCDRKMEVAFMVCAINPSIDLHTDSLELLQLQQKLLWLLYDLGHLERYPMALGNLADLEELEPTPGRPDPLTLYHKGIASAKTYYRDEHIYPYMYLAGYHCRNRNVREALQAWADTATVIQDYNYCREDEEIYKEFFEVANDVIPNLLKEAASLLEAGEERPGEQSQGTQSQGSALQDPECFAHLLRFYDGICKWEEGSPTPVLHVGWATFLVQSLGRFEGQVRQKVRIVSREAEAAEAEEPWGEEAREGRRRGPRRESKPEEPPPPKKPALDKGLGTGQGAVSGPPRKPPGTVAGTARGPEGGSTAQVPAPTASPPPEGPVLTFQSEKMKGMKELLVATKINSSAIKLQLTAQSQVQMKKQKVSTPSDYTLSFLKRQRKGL

Potency, inconclusive:
COc1cccc(N2CCN(S(=O)(=O)c3ccc4c(c3)oc(=O)n4C)CC2)c1 39.8 µM [fluorescent, side channel, single point]
CC(=O)Nc1ccc(N=Cc2c(O)c(C(=O)Nc3ccccc3)cc3ccccc23)cc1 7.94 µM [quencher, side channel, partial curve]
CCN1CCSc2ccc(C(=O)NCc3cccc(Br)c3)cc21 31.6 µM [quencher, side channel, single point]
Cc1ccc(Nc2nc(-c3cccnc3)cs2)cc1C 20 µM [quencher, side channel, partial curve]
O=C(N/N=C/c1ccc2c(c1)OCO2)c1cccnc1 3.55 µM [inhibitor, partial curve]
CC1Cc2ccccc2N1C(=S)Nc1cccc(S(=O)(=O)N(C)C)c1 (stereo unspecified) 25.1 µM [quencher, side channel, single point]
O=c1c(-c2ccc(F)cc2)nc2cnc(Nc3ccccc3)nc2n1Cc1cccs1 1.58 µM [quencher, side channel, full curve, poor fit]
Oc1c(C=C2N=c3ccccc3=N2)sc(=S)n1-c1ccccc1 8.91 µM [quencher, side channel, partial curve]
Nc1nc(-c2ccc(Br)s2)c(Br)s1 28.2 µM [quencher, side channel, single point]
O=C(O)c1cnc(-c2ccccc2)nc1Sc1cccc(Cl)c1 35.5 µM [quencher, side channel, single point]
NS(=O)(=O)c1ccc(CCNC(=O)c2cc(-c3ccccn3)nc3ccc(Br)cc23)cc1 17.8 µM [inhibitor, partial curve]
CCO[C@H]1OC(C(=O)N2CCN(Cc3ccc4c(c3)OCO4)CC2)=C[C@@H](c2ccc(C(F)(F)F)cc2)[C@@H]1CCCO 5.01 µM [fluorescent, side channel, full curve]
Cc1onc(-c2c(Cl)cccc2Cl)c1C(=O)NC(=S)Nc1sc2c(c1C(N)=O)CCC(C)C2 (stereo unspecified) 3.16 µM [quencher, side channel, full curve]
CCc1cccc(NC(=O)Nc2ccc3c(c2)OCO3)c1 12.6 µM [quencher, side channel, partial curve]
CCOC(=O)c1c(-c2ccccc2)csc1NC(=O)CSc1nc(N)cc(N)n1 22.4 µM [quencher, side channel, single point]
Cc1cccc(N2CCN(C3=NC(=O)C(Cc4ccccc4)S3)CC2)c1 (stereo unspecified) 10 µM [fluorescent, side channel, partial curve]
CC(C)C[C@H](NC(=O)NC(C)C)C(=O)O 0.562 µM [inhibitor, full curve, poor fit]
O=C1C(=C2CCCCC2)SC(=S)N1Cc1ccco1 25.1 µM [quencher, side channel, single point]
C[C@@H](CN1C2=NC[C@H](Cc3ccc(O)cc3)N2C[C@H]1Cc1ccc(O)cc1)NC(=O)CCC1CCCCC1 2.51 µM [fluorescent, side channel, full curve, poor fit]
COc1ccc(/C=C2\SC(=S)N(NS(=O)(=O)c3ccccc3)C2=O)c(OC)c1 39.8 µM [quencher, side channel, single point]
CCOC(=O)N1CCC(NC(=O)c2cc3c(-c4ccccc4F)nn(C)c3s2)CC1 22.4 µM [fluorescent, side channel, single point]
C=CCn1c(CSCc2ccc(C)cc2)nnc1SCC(=O)NCc1ccccc1 12.6 µM [fluorescent, side channel, partial curve]
CC(Sc1nc2c(c(=O)[nH]1)CCCC2)C(=O)Nc1ccccc1C#N (stereo unspecified) 17.8 µM [inhibitor, partial curve]
COc1ccc(OC)c(Nc2nc(-c3cccc([N+](=O)[O-])c3)nc3ccccc23)c1 2.51 µM [quencher, side channel, full curve, poor fit]
CC(Sc1nc2sccc2c(=O)n1-c1ccccc1)C(N)=O (stereo unspecified) 25.1 µM [quencher, side channel, single point]
C=C1CCC[C@]2(C)C[C@H]3OC(=O)C(CN[C@@H](C)c4ccccc4)[C@H]3CC12 (stereo partly specified) 14.1 µM [fluorescent, side channel, partial curve]
CCc1ccc(CN2CCN(C(=O)c3ccco3)CC2)cc1 14.1 µM [inhibitor, partial curve]
COc1ccc(N(Cc2cc3ccccc3[nH]c2=O)S(=O)(=O)c2ccc(C)cc2)cc1 6.31 µM [inhibitor, single point]
COc1ccc(-c2csc(NC(=O)C3CC(=O)N(c4ccc5c(c4)OCCO5)C3)n2)cc1 (stereo unspecified) 39.8 µM [inhibitor, single point]
O=C(Nc1nc2ccccc2n1CCOc1ccccc1)c1ccco1 17.8 µM [quencher, side channel, single point]
O=c1[nH]cnc2c1nc(NCc1ccccc1)n2C1O[C@@H](CO)[C@H](O)[C@@H]1O (stereo partly specified) 39.8 µM [inhibitor, single point]

Potency, inactive:
Cc1cccc(CNc2ncnc3ccc(-c4c(C)noc4C)cc23)c1
O=C(c1cccc(Cl)c1)N1CCC(C(=O)N2CCN(Cc3ccccc3)CC2)CC1
CCOC(=O)/C=c1\s/c(=C\c2sccc2C)c(=O)n1CC(=O)NCc1ccc(C)cc1
N#Cc1cccc(-c2cncnc2-n2ccnc2)c1
Cc1cn2c(-c3cccnc3)nnc2s1
